# Assay results as given in PubChem BioAssay AID504332 (National Center for Advancing Translational Sciences (NCATS), 2011).
# In all, about 350,000 compounds went through this assay and about 31,000 (8.9%) were called active. The shares of active, inactive and inconclusive entries below differ from those in the screen. Calls come from the whole dose curve; as a rule, active = well fitted inhibition curve with a large enough effect; inconclusive = small, poorly fitted or top-dose-only effect; inactive = no such curve, though single readings can be large or run the other way. Where the call is inconclusive, the potency comes from a doubtful curve fit.
# Molecular target: Histone-lysine N-methyltransferase EHMT2 (Homo sapiens) (UniProt Q96KQ7)
# Sequence of UniProt Q96KQ7 (Q96KQ7 whole entry, looked up): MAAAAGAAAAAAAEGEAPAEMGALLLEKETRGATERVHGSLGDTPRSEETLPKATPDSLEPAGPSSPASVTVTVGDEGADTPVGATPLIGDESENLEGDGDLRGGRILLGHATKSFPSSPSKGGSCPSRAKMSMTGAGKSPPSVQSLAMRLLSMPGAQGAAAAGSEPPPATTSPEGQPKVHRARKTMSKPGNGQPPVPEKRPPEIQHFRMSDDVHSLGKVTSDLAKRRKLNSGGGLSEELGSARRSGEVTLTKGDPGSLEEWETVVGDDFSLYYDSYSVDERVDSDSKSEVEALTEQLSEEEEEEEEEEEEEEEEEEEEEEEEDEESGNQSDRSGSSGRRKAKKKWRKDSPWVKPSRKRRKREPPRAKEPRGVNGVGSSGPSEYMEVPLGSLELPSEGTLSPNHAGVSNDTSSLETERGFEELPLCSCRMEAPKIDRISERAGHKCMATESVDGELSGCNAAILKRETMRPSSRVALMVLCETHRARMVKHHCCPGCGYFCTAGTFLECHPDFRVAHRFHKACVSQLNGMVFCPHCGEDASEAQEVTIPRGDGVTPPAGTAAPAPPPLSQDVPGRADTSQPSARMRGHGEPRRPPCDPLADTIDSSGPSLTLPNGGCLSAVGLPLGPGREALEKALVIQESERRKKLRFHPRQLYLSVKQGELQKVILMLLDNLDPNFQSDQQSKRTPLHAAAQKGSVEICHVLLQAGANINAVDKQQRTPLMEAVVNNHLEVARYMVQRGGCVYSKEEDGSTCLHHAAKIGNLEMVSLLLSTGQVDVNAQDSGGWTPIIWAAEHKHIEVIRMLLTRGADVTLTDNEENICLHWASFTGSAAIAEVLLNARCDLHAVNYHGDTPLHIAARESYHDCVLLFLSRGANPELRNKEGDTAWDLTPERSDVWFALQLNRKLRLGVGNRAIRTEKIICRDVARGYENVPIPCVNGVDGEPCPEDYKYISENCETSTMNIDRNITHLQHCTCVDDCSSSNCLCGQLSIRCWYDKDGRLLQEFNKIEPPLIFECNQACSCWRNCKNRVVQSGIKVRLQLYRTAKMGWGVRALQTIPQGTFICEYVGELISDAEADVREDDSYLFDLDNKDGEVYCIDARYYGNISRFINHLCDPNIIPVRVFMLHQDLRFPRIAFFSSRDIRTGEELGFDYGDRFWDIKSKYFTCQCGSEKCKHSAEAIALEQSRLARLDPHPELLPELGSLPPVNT
# Test: qHTS Assay for Inhibitors of Histone Lysine Methyltransferase G9a; note: nearly all actives have a fitted effect of over 75% in size
# Details: G9a H3K9 monomethylation, AlphaScreen, 2 h; activity, negative = inhibition: at 59 µM (top of the series) unless noted
# In short: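 G9a (20 nM) preincubated 15 min RT with compounds, then 500 nM biotinylated H3K9 peptide and 20 uM SAM added; 2 h RT reaction. Monomethyl-H3K9 product detected by AlphaScreen with anti-H3K9me1 antibody, streptavidin donor and anti-rabbit IgG acceptor beads.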
# % is set by controls: 0 for no effect and ±100 for the full control effect; potency is the fitted concentration of half-maximal effect; tags give direction and shape of the fitted curve.
SMILES,"activity, negative = inhibition",Potency
O=C(Cn1c(=O)oc2ccccc21)N1CCN(S(=O)(=O)c2ccccc2)CC1,inactive: 36.9% [at 12.7 µM],
O=C(O)c1ccc(N2CCN(C(c3ccccc3)c3ccccc3)CC2)c([N+](=O)[O-])c1,,active: 31.6 µM
O=C(O)c1cc(-c2ccc(Cl)cc2)n(-c2ccc(Cl)cc2)n1,,"inconclusive: 89.1 µM [inhibitor, single point]"
O=[N+]([O-])c1ccc(NCCCN2CCOCC2)c(Cl)c1,inactive: 20.5% [at 2.33 µM],
CCCSC1=C(C#N)C(c2ccc(Cl)cc2Cl)CC(=O)N1 (stereo unspecified),,"inconclusive: 3.16 µM [inhibitor, partial curve, poor fit]"
CN(CC(=O)Nc1ccc(C#N)cc1)CC(=O)Nc1ccc(N2CCOCC2)cc1,,"inconclusive: 79.4 µM [inhibitor, single point]"
O=C(CNC(=O)c1ccccc1F)N/N=C/c1cc(Br)ccc1OC(=O)/C=C/c1ccco1,,"inconclusive: 28.2 µM [inhibitor, single point]"
CCN1CCN(Cc2nc(N)nc(Nc3ccc(C)c(C)c3)n2)CC1,,"inconclusive: 1.26 µM [inhibitor, single point]"
CCCCC/C=C\C[C@@H](O)/C=C/C=C/C=C\[C@@H](O)CCCC(=O)O,,inactive
Cc1cc(C)n(-c2nc(Nc3ccccc3)nc(-n3nc(C)cc3C)n2)n1,,"inconclusive: 14.1 µM [inhibitor, partial curve]"
Cc1cc(=O)[nH]c2nnc(-c3ccc(Br)cc3)n12,,inactive
S=c1[nH]nc(-c2ccc3ccccc3n2)n1-c1ccccc1Cl,,"inconclusive: 1.78 µM [inhibitor, partial curve, poor fit]"
O=C(CCn1cnnn1)Nc1ccc(Cl)c(Cl)c1,,inactive
COc1ccc(-c2csc(Nc3ccccc3)[n+]2Cc2ccccc2)cc1,,active: 15.8 µM
C=CCn1c(C)nnc1SCC(=O)Nc1oc(C)c2c(C)n[nH]c(=O)c12,,active: 31.6 µM
CCC(=O)Nc1c(-c2cccs2)c(=O)c2ccccc2n1C,,"inconclusive: 1.12 µM [inhibitor, full curve, poor fit]"
COc1ccc(/C=C/c2nc(-c3ccccc3O)n[nH]2)cc1OC,,inactive
CO[C@H]1C([C@@]2(C)O[C@@H]2CC=C(C)C)[C@]2(CC[C@H]1OC(=O)/C=C/C=C/C=C/C=C/C(=O)O)CO2 (stereo partly specified),,active: 22.4 µM
CCc1ccccc1NC(=O)CN1C(=O)C2CCCN2c2ncc(Cl)cc21 (stereo unspecified),,"inconclusive: 56.2 µM [inhibitor, partial curve, poor fit]"
CNc1oc(-c2cccs2)nc1C#N,,"inconclusive: 39.8 µM [inhibitor, single point]"
C=CCn1c(-c2ccc(N)cc2)nc2ccccc21,,"inconclusive: 89.1 µM [inhibitor, single point]"
COc1ccc(C(=O)Nc2nc(-c3ccc(OC)cc3)c(-c3ccc([N+](=O)[O-])cc3)s2)cc1,,"inconclusive: 89.1 µM [inhibitor, partial curve, poor fit]"
COc1cc(/C=N/NC(=S)N/N=C/c2cc(OC)c(OC)c(OC)c2)cc(OC)c1OC,,"inconclusive: 25.1 µM [inhibitor, single point]"
O=C(OCc1c(F)cccc1Cl)c1cc([N+](=O)[O-])ccc1N1CCOCC1,,"inconclusive: 1.26 µM [inhibitor, full curve, poor fit]"

SMILES,"activity, negative = inhibition",Potency
Cc1c(C(=O)Oc2cccc3cccnc23)oc2ccccc12,,"inconclusive: 1 µM [inhibitor, full curve, poor fit]"
O=C1C2CC=CCC2C(=O)N1CC1CCCO1 (stereo unspecified),,inactive
CCCOc1ccc(-c2c(C(=O)N/N=C(\C)c3ccco3)nnn2-c2nonc2N)cc1,,inactive
Cc1nn(-c2cc(N(S(C)(=O)=O)S(C)(=O)=O)c(Cl)cc2Cl)c(=O)n1C,,"inconclusive: 39.8 µM [inhibitor, single point]"
CS(=O)(=O)c1ccc2nc(NC(=O)C3COc4ccccc4O3)sc2c1 (stereo unspecified),,"inconclusive: 89.1 µM [inhibitor, single point]"
COc1ccccc1-c1nc(-c2cccc(C)c2)no1,,"inconclusive: 1.58 µM [inhibitor, partial curve, poor fit]"
CC(=O)C(=Cc1cc(C)n(-c2ccccc2)c1C)C(C)=O,,"inconclusive: 89.1 µM [inhibitor, single point]"
CC(C)NC(=O)NC(=O)CSc1nnc(-c2c[nH]c3ccccc23)o1,,inactive
CCCS(=O)(=O)Nc1cc(-c2cn3ccc(C)cc3n2)ccc1C,,inactive
O=C(Nc1ccc2nc(SCC(=O)N3CCCc4ccccc43)sc2c1)c1ccc(Cl)cc1,,inactive
CN(CCC1CCOCC1)C(=O)CC1C(=O)NCCN1Cc1cccc(F)c1 (stereo unspecified),,"inconclusive: 89.1 µM [inhibitor, single point]"
COC(=O)c1[nH]c2ccccc2c1NC(=O)CCN1CCSCC1,,"inconclusive: 89.1 µM [inhibitor, single point]"
C=C(C)[C@H]1CC=C(CO)CC1,,inactive
Cc1[nH]c2ccccc2c1Cc1nnc(SCc2ccccc2)o1,,active: 70.8 µM
Nc1nc2n[nH]nc2c(=O)[nH]1,,inactive
O=C(Nc1ccc([N+](=O)[O-])cn1)c1cc(-c2cccc(Br)c2)nc2ccccc12,,"inconclusive: 20 µM [inhibitor, single point]"
C=CCn1c(-c2cc(OC)cc(OC)c2)n[nH]c1=S,,"inconclusive: 7.94 µM [inhibitor, full curve, poor fit]"
CCOc1ccc(S(=O)(=O)NC(C)C(=O)NC2CCCC2)cc1 (stereo unspecified),,inactive
COc1ccc(CCCc2nnc(SCC(=O)Nc3ccc(C)cc3)o2)cc1C,,"inconclusive: 10 µM [inhibitor, partial curve]"
Cc1cccc2c(CC(=O)O)noc12,,"inconclusive: 25.1 µM [inhibitor, single point]"
COc1cc(CCC(=O)OCC(=O)Nc2ccc(C)cc2Br)cc(OC)c1OC,,"inconclusive: 3.16 µM [inhibitor, partial curve, poor fit]"
COc1cccc(-c2coc3cc4oc(=O)c(CCC(=O)O)c(C)c4cc23)c1,,inactive
Cc1ccc(S(=O)(=O)c2nnn3c2nc(N2CCOCC2)c2sccc23)cc1C,,inactive
COc1ccc(CC(=O)Nc2ccc(N3CCOCC3)cc2)cc1OC,,"inconclusive: 50.1 µM [inhibitor, partial curve]"

SMILES,"activity, negative = inhibition",Potency
Brc1ccc(N=Cc2ccccn2)cc1,,"inconclusive: 89.1 µM [inhibitor, single point]"
CN1C2CCC1/C(=C/c1cccn1C)C(=O)/C2=C\c1cccn1C,,"inconclusive: 5.62 µM [inhibitor, partial curve, poor fit]"
Fc1cccc(CSc2ccc(-c3ccco3)nn2)c1,,"inconclusive: 31.6 µM [inhibitor, single point]"
Cc1ccc([N+](=O)[O-])cc1N=Nc1c(-c2ccc([N+](=O)[O-])cc2)[nH]n(C(N)=S)c1=O,,"inconclusive: 10 µM [inhibitor, full curve, poor fit]"
Cc1cc(=O)oc2cc(OCC(=O)Nc3ccc(CN4CCOCC4)cc3)c(Cl)cc12,,inactive
COc1ccc(C(=O)Nc2nc3n(n2)C(c2ccc(Cl)cc2)C=C(c2ccccc2)N3)cc1OC (stereo unspecified),,"inconclusive: 25.1 µM [inhibitor, single point]"
CNC(=S)NNC(=O)c1cccn(Cc2ccc(Cl)cc2Cl)c1=O,,"inconclusive: 22.4 µM [inhibitor, partial curve, poor fit]"
COc1ccc(N2CCN(C(=O)CN(c3ccccc3)S(C)(=O)=O)CC2)cc1,inconclusive: -52.6% [inhibitor],
COc1ccc(-n2c(=O)c3ccccc3n(Cc3ccccc3Cl)c2=O)cc1,,inactive
COc1ccccc1NC(=O)c1ccccc1NC(=O)c1cc(Cl)ccc1NC(=O)c1ccco1,,inactive
CCN(CC)CCCN1C(=O)C(O)=C(C(=O)c2sc(C)nc2C)C1c1ccco1 (stereo unspecified),,"inconclusive: 79.4 µM [inhibitor, partial curve, poor fit]"
CCC(C(=O)NCCc1cc(OC)ccc1OC)n1nc(C)c2c(C)n(-c3ccccc3)nc2c1=O (stereo unspecified),,inactive
CCOc1ccccc1NC(=O)Cn1c(=O)n(Cc2cccs2)c(=O)c2cccnc21,,inactive
COc1ccc2nc(Nc3sc4c(c3C(N)=O)CCCC4)sc2c1,,active: 3.16 µM
CCn1c(-c2ccccc2SC)n[nH]c1=S,,active: 14.1 µM
Cc1ccc(CN2CCN(C(=O)c3cccc4ccccc34)CC2)cc1,,"inconclusive: 0.112 µM [inhibitor, full curve, poor fit]"
CN1CC(=O)Nc2cc(C(=O)O)ccc21,,"inconclusive: 31.6 µM [inhibitor, partial curve, poor fit]"
Cc1ccc(C2=CSC3=NCCN23)c(C)c1,,"inconclusive: 20 µM [inhibitor, partial curve, poor fit]"
Cc1ccc(NC(=S)NC(NC(=O)C(C)(C)C)C(Cl)(Cl)Cl)c(C)c1 (stereo unspecified),,"inconclusive: 10 µM [inhibitor, partial curve]"
COc1cccc(-n2ccnc2SCC(=O)N2CCCc3ccccc32)c1,,"inconclusive: 79.4 µM [inhibitor, single point]"
Cc1cccc(NC(=S)NC(NC(=O)c2ccco2)C(Cl)(Cl)Cl)c1 (stereo unspecified),,active: 14.1 µM
Cc1ccc(NC(=S)N/N=C/c2c(C)nn(-c3ccccc3)c2N2CCCC2)cc1,,inactive
Cc1nonc1OC(C)CNCCNc1ccc([N+](=O)[O-])cc1 (stereo unspecified),,"inconclusive: 44.7 µM [inhibitor, partial curve, poor fit]"
